Reference: the BET-seq Pho4 binding data (Le et al. 2018)
The other results are listed elsewhere or left out. Values were computed here from the reads of four pooled replicates and scatter widely.

Molecular target: T1, Pho4 (S. cerevisiae) (UniProt P07270)
T1 sequence: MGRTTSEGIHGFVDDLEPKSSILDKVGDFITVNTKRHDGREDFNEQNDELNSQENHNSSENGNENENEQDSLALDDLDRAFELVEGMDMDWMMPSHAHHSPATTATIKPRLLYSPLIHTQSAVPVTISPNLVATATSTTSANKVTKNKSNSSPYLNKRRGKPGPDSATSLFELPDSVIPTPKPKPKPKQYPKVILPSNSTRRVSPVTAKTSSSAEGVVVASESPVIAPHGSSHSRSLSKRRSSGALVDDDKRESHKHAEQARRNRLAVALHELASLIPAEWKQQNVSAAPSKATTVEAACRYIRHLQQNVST
Assay: relative binding free energy (BET-seq); higher = weaker binding
Conditions: reference: library average

Sequence	relative binding free energy [kcal/mol]
AAGGACACGTGGTGGC	-0.08
TGAGTCACGTGCATTG	0.05
TGTATCACGTGCGCTT	0.01
TAGTGCACGTGGGTCT	-0.15
TGTATCACGTGTGGAT	0.11
GTGTACACGTGAGTCA	0.28
ACTGTCACGTGTTTGT	-0.03
TGGCTCACGTGGAAGG	0.28
ATGTCCACGTGGTATG	-0.16
TATGACACGTGGCATG	-0.16
GATGGCACGTGTTTTA	0.12
TTTCTCACGTGAAAGT	0.51
TTACGCACGTGGTAGA	-0.12
GTATGCACGTGAGATG	0.28
TTAGTCACGTGTAGTT	0.16
ATTGTCACGTGCGTAG	0.07
ATTATCACGTGGGCGG	-0.06
AGAGTCACGTGTCGGT	-0.02
ATGATCACGTGAGGAG	0.13
TGGGACACGTGGGCTT	-0.21
TCCAGCACGTGGGGTG	-0.29
TTCGTCACGTGAGTTG	0.27
TATTGCACGTGTCGTA	-0.18

Sequence	relative binding free energy [kcal/mol]
AAGGACACGTGGACGG	0.17
CAGCGCACGTGTGGTT	-0.04
ACGTGCACGTGTGTGT	-0.01
AGGCACACGTGGGTCT	0.01
TCTACCACGTGTGGGT	0.13
GGTCTCACGTGCTATG	0.31
AGGTTCACGTGATTTG	0.43
AGAACCACGTGTGGGT	-0.04
GGTATCACGTGCGGTG	0.19
TATTTCACGTGGACGG	0.43
TTTCGCACGTGGTGTG	-0.14
GTGCACACGTGGGGAT	-0.13
GAAGTCACGTGTCTGG	0.11
TTTATCACGTGTGACT	0.22
AATGACACGTGTGTAT	0.05
TGAGCCACGTGTAGTG	-0.03
GTGGTCACGTGGGAGA	0.12
ATTGTCACGTGTGACG	0.12
AGAGGCACGTGTATGA	-0.24
TTATCCACGTGGCGTT	0
TGTTTCACGTGACATT	0.36
GTGCGCACGTGACGGT	0.03
TGGGTCACGTGCGTCA	-0.05

Sequence	relative binding free energy [kcal/mol]
CTGGGCACGTGTAGGC	-0.09
TTGATCACGTGATGGC	0.32
GTGTTCACGTGAATTG	0.39
GGGTACACGTGAGAGG	0.21
TGTGGCACGTGGGCTC	-0.24
TTAAGCACGTGTTAAG	-0.08
GTGGACACGTGTTTTA	0.08
GGGTTCACGTGGGGAC	0.12
TAGCGCACGTGGTGTT	-0.1
TTTTTCACGTGTTGCA	0.28
CGTTGCACGTGGCGGC	-0.17
ATTATCACGTGTGCTT	0.03
CGGGGCACGTGTTGGG	-0.09
CTTTGCACGTGGGCGG	-0.23
ATTCTCACGTGGTCTG	0.12
CGGTGCACGTGGGGCT	-0.19
GATTACACGTGGAGGT	0.07
TATATCACGTGTTGCG	0.2
TTCTACACGTGGTGAG	0.08
TATTTCACGTGATGCA	0.35
GTATGCACGTGATGGT	0.12
GTTTACACGTGCGAGG	0.07
AGGGACACGTGTCTGT	-0.1

Sequence	relative binding free energy [kcal/mol]
GTTCTCACGTGTTAGG	0.35
GGAGTCACGTGCGGAT	0.01
TGTCACACGTGGTGTC	0.06
TGCAACACGTGTAGGT	0.16
GGTAACACGTGTGCGA	0.09
AGTTACACGTGAGTGC	0.2
AACAGCACGTGTGGGG	-0.07
AGCTTCACGTGAATGT	0.31
GGTAGCACGTGAGTGC	0.1
CGCGGCACGTGTGAGG	0.02
AAGGTCACGTGTAAGG	0.16
TACTACACGTGTGGTT	0.21
GTGAGCACGTGTAGAA	0.01
TTTAGCACGTGAATGT	0.24
TTTGTCACGTGCGTTG	0.13
TGATGCACGTGGTATG	-0.2
GTTTTCACGTGCGAGA	0.26
GGGCTCACGTGAGGAG	0.44
GTGCTCACGTGGGGTT	0.16
AGAAGCACGTGGGGTA	-0.32
TCTGCCACGTGGTGGT	-0.16
TTGTTCACGTGAGGGC	0.43
AATTGCACGTGATAAT	0.03

Sequence	relative binding free energy [kcal/mol]
CAGGGCACGTGGGGAC	-0.25
ATTGTCACGTGCGGGG	0.02
GTTGTCACGTGCAATT	0.07
ATAGTCACGTGAAGGT	0.05
AGGTACACGTGTTTTA	0.05
TTGGCCACGTGCTTTG	-0.17
CCGGGCACGTGGTGAA	-0.09
ATTTGCACGTGCGTTC	-0.03
TATTTCACGTGGCGGG	0.26
GAGTGCACGTGTAGCT	0.13
GTTAGCACGTGGTTGT	-0.07
TATTGCACGTGGGAAA	-0.07
TCTAGCACGTGTATTG	-0.06
ATCAGCACGTGTGATG	0.12
TAATGCACGTGTTCAG	-0.06
TTAGACACGTGAAGGT	0.21
TGTGGCACGTGTTTTA	-0.02
ATGTGCACGTGGTTAC	0.01
TGCGGCACGTGAATCG	0.2
TAAGGCACGTGGATAA	0
TCCGGCACGTGGGGTT	-0.18
TTTGGCACGTGTTGCG	-0.03
TATAGCACGTGGGCAG	-0.22
